Laboratory results from PubChem BioAssay AID1963576 (National Center for Advancing Translational Sciences (NCATS), 2024).
Out of some 46,000 compounds screened, about 60 (0.1%) were called active. Roughly 3% stayed inconclusive and do not appear here. Calls come from the whole dose curve; as a rule, active = well fitted inhibition curve with a large enough effect; inconclusive = small, poorly fitted or top-dose-only effect; inactive = no such curve, though single readings can be large or run the other way. Some of the results follow.

Assay: Primary qHTS assay for Inhibitors of ovarian cancer metastasis using an organotypic tumor microenvironment (TME) model.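 For activity change, negative = inhibition: plate controls were DMSO wells for no effect and tomatine positive control wells for full effect.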 Note: nearly all actives have a fitted effect of over 65% in size.
Details: SKOV3ip1-GFP adhesion/invasion on 3D omental model, fluorescence; series mostly up to 45.8 µM; activity change, negative = inhibition: at the top concentration
How it was run: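 qHTS, 4-pt dose (0.36-46 umol/L); SKOV3ip1-GFP, 1,200 cells/well, no FBS; primary omental fibroblast/mesothelial co-culture 48 h pre-grown; 2 h RT + 16 h 37 C; PBS wash, 4% PFA; GFP count 488/509 nm.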

Activity change, negative = inhibition, inactive:
COc1ccc(CCNC(=O)C2CCN(c3ncnc4c3nc3n4CCCCC3)CC2)c(OC)c1 15.7%
CCOc1ccc(S(=O)(=O)c2c[nH]c3ccccc3c2=O)cc1 -32.7%
Cc1cc(C)cc(-n2nnc(-c3nsc(NC(=O)c4ccccc4Cl)n3)c2C)c1 3.89%
COc1cccc(CNC(=O)c2ccc(-c3nc(CS(=O)(=O)c4ccccc4)c(C)o3)cc2)c1 4.68%
O=C(Nc1cc(Cl)cc2c1[nH]c1cnccc12)c1cccnc1 -0.732%
COC(=O)c1ccc2c(=O)n(CCCCCC(=O)N3CCN(c4cc(Cl)ccc4C)CC3)c(=O)[nH]c2c1 -24.3%
CCC1CCCCN1C(=O)CSc1n[nH]c(-c2ccccc2Cl)n1 (stereo not drawn) 2.96%
COc1ccc(CCNC(=O)c2cnc3sc(N4CCC(C)CC4)nn3c2=O)cc1OC 13.5%
CC(=O)Nc1ccc(S(=O)(=O)NCc2ccc(C(=O)NCc3ccc(Cl)cc3)cc2)cc1 4.95%
O=C(Nc1ccc(C(F)(F)F)cc1)C1CCCN(S(=O)(=O)c2cccc3cccnc23)C1 (stereo not drawn) -14.3%
COC(=O)c1cc2sccc2n1Cc1nc(-c2cccc(Br)c2)oc1C 11%
O=C(Nc1cccc(C(=O)N2CCN(c3ccccc3F)CC2)c1)c1nsc2ccccc12 4.7%
CCCCCCc1cc2cc(-c3nnc(-c4ccc(C)cc4)o3)c(=O)oc2cc1O 4.79%
O=C(NCc1cccnc1)C(=O)NCC(c1cccnc1)N1CCN(c2ccccc2)CC1 (stereo not drawn) 1.37%
CCc1ccc(NC(=O)CSc2nc(C)cc(COC)c2C#N)cc1 0.728%
CCc1ccc(-n2nc(C)c3c(C)cc(=O)n(CC(=O)NCc4ccc(C)cc4)c32)cc1 16.9%
COc1ccc2cc(C(=O)NCc3ccc4c(c3)CCN4C(=O)c3ccc(C)cc3)[nH]c2c1 -2.1%
CCOc1ccc2nc(N3CCCC(C(=O)NCc4ccccc4Cl)C3)sc2c1 (stereo not drawn) -26.5%
C=Cc1ccc(Cn2c(=O)n(-c3ccc(C)cc3)c(=O)c3c2c2cc(OC)ccc2n3C)cc1 24.2%
Cc1ccc2c(c1)c(=O)c(C(=O)c1ccncc1)cn2CC(=O)Nc1ccccc1Cl -6.85%
CCc1ccc(C2=CC(c3cccc(Br)c3)n3nnnc3N2)cc1 (stereo not drawn) -8.02%
CC(C)C(=O)Nc1cccc(NC2=NS(=O)(=O)c3ccccc32)c1 21.1%
Cc1ccc(C)c(N2CCN(c3nc4ccccc4c4nc(-c5cccnc5)nn34)CC2)c1 6.37%
CC(=O)Nc1nnc(SCc2cc(=O)c3cccc(C)c3[nH]2)s1 -10.5%
CC1=C(C(=O)Nc2ccc(C)cc2C)C(c2cccn2C)n2ncnc2N1 (stereo not drawn) -18.8%
CNC(=O)CN1CCC(Oc2cc3c(Nc4cccc(Cl)c4F)ncnc3cc2OC)CC1 -20.6%
COc1ccc(NC(=O)CSc2nc(O)c(C/C=C/c3ccccc3)c(=O)[nH]2)cc1 -4.39%
Cc1ccc(CNC(=O)C2CCCN(c3nnc(-n4c(C)ccc4C)s3)C2)cc1 (stereo not drawn) 0.146%
CCc1ccc(NC(=O)Cn2c(=O)oc3cc(S(=O)(=O)NCc4ccccc4)ccc32)cc1 -2.66%
CCCS(=O)(=O)Nc1ccc(F)c(C(=O)c2c[nH]c3ncc(Cl)cc23)c1F -9.38%
COc1ccccc1CNC(=O)CCC1N=C2c3ccccc3N=C(SCc3ccccc3Cl)N2C1=O (stereo not drawn) -3.5%
CCSc1nc(-c2ccc(Cl)cc2)nc2c1Cc1c(CO)cnc(C)c1O2 4.4%
CCOC(=O)c1sc2ccccc2c1S(=O)(=O)NCc1ccc(F)cc1 3.29%
COc1ccc(-c2cc(C(F)(F)F)n3nc(C(=O)Nc4cccc(C(F)(F)F)c4)c(Br)c3n2)cc1 -5.46%
CCN1CCCC1CNC(=O)c1cc(S(=O)(=O)CC)c(N)cc1OC (stereo not drawn) -6.27%
Cc1ccc(-n2nnnc2CNC(=O)c2ccccc2F)cc1C 2.5%
Cc1ccc(NC(c2nnc(-c3ccccc3)o2)c2ccccc2F)c([N+](=O)[O-])c1 (stereo not drawn) -3.38%
O=C(NCc1ccccc1Cl)c1ccc(CSCc2cccc(F)c2)o1 -6.81%
Nc1nc(N)nc(-c2cc(Cl)ccc2Cl)n1 -14.6%
O=c1[nH]c(-c2ccc(C(F)(F)F)cc2)nc2c1CSCC2 -15.6%
CCc1cccc(NC(=O)Cn2cc(C(=O)c3ccncc3)c(=O)c3cc(C)c(C)cc32)c1 -0.146%
O=C(NCc1ccc(Cl)cc1)c1ccc2c(c1)NC(=O)C(CS(=O)(=O)Cc1ccccc1Cl)N2 (stereo not drawn) -8.99%
O=C(Nc1c(C(=O)Nc2cccc(C(F)(F)F)c2)oc2ccccc12)c1cc(=O)c2ccccc2o1 3.35%
O=C(O)CCn1cnc2onc(-c3ccccc3Cl)c2c1=O -8.83%
CCC1CCCCN1C(=O)Cn1c(=O)n(CCCCCC(=O)NCc2ccc(F)cc2)c(=O)c2sccc21 (stereo not drawn) 0.613%
Cc1cccc(C(=O)OCc2cc(=O)n3nc(C4CCCCC4)sc3n2)c1 -1.07%
CC(C)Sc1ncc(Cl)c(C(=O)N(Cc2ccc(F)cc2)C2CCS(=O)(=O)C2)n1 (stereo not drawn) -3.45%
O=C(Cc1cccs1)NC1CC(=O)N(c2ccc(Cl)cc2)C1 (stereo not drawn) 0.0491%
CCC1=C[C@@H]2CN(C1)Cc1c([nH]c3ccccc13)[C@@](C(=O)OC)(c1cc3c(cc1OC)N(C)[C@@H]1[C@@](O)(C(=O)OC)[C@H](OC(C)=O)[C@]4(CC)C=CCN5CC[C@]31[C@@H]54)C2 9.28%
Cc1ccc(NC(=O)CN2C(=O)C(C)(C)c3ccccc32)cc1 -16.1%
O=C(NCCC1=CCCCC1)c1ccc2c(c1)N(Cc1ccccc1F)C(=O)c1ccccc1S2(=O)=O -1.06%
CCc1cccc(N2C(=O)CS(=O)(=O)C23C(=O)N(Cc2ccc(F)cc2)c2ccc(C)cc23)c1 (stereo not drawn) 14.7%
COc1ccc(N2Cc3cccc(C(=O)Nc4ccc(C)c(C)c4)c3C2=O)cc1 -7.51%
O=C(Nc1cccc(Cl)c1)Nc1ncc(CCNc2ncnc3ccsc23)s1 -5.14%
CCOC(=O)c1cc(-c2ccccc2)n(-c2cccc(C(=O)N(CC)c3ccccc3)c2)c1C -9.87%
Cc1ccc(S(=O)(=O)c2nc(-c3ccco3)oc2SCc2ccccc2Cl)cc1 -0.925%
CCN1c2cc(C)ccc2-n2cccc2C12CCN(C(=O)Nc1cc(OC)c(OC)c(OC)c1)CC2 -1.12%
Cc1cc(C)cc(-n2ccn3c(CC(C)(C)CC(=O)O)nnc3c2=O)c1 -3.08%
COc1cccc(NC(=O)C2CCCN2S(=O)(=O)c2ccc3c(c2)C(C)(C)C(=O)N3C)c1 (stereo not drawn) 6.63%
Cc1ccc2oc3c(c(=O)c2c1)C(c1cccc(O)c1)N(Cc1ccccc1Cl)C3=O (stereo not drawn) -14.1%
COc1ccc(N2CCN(C(=O)NCc3noc4ccccc34)CC2)cc1 -3.31%
Cc1c2cnn(-c3ccccc3)c(=O)c2c(C)n1C(C)C(=O)Nc1ccc(Br)cc1F (stereo not drawn) 9.02%
CSc1ccc(CCNC(=O)CCc2c(C)nc3cc(-c4ccccc4)nn3c2C)cc1 -4.31%
CCCOc1ccc(CN(C(=O)c2nc(SC(C)C)ncc2Cl)C2CCS(=O)(=O)C2)cc1 (stereo not drawn) 0.94%
COc1cc2[nH]c(=O)n(CCCCCC(=O)NCCc3ccccc3)c(=O)c2cc1OC 42.2%
CCNC(=O)c1ccc2nc(Cc3ccccc3)oc2c1 2.4%
O=C(Nc1c(C(=O)Nc2cccc(F)c2)oc2ccccc12)c1cc2ccccc2o1 35.6%
Fc1ccc(-c2ccc(CNCCSc3nnnn3-c3ccccc3)o2)cc1Cl -24.2%
CCOc1nc(-c2ccc(C)cc2)ccc1-c1noc(-c2ccccc2F)n1 -0.748%
O=C(Nc1nnc(S(=O)(=O)N2CCc3ccccc32)s1)c1ccccc1 7.39%
COc1cccc(C2c3c(-c4ccccc4O)n[nH]c3C(=O)N2CCc2ccc(OC)c(OC)c2)c1 (stereo not drawn) -3.54%

outcome, inactive:
CCc1ccc(NC(=O)Cn2ncc3c(C)n(Cc4cccc(Cl)c4)c(C)c3c2=O)cc1
CN(C)CCNC(=O)CN1C(=O)CCn2nc(-c3cn(C)c4ccccc34)cc21
CCN(c1ccc(OC)cc1)S(=O)(=O)c1nnc(NC(=O)c2ccccc2C)s1
CCc1cc2c(cc3c(=O)n(CC(=O)N4CCN(c5cc(Cl)ccc5C)CC4)nc(CC)n32)s1
CC(C)CCNc1nc2c(S(=O)(=O)c3ccc(Br)cc3)nnn2c2ccsc12
CCOc1ccc(NC(=O)Cn2c(=O)n(CC3CCCO3)c(=O)c3ccccc32)cc1 (stereo not drawn)
O=C(NCc1ccccc1)C1CCN(C(=O)c2cnn(-c3ccccc3)c2-n2cccc2)CC1
CCOC(=O)c1cccc(NC(c2nnc(-c3ccccc3)o2)c2ccccc2F)c1 (stereo not drawn)
COc1ccc(CCNC(=O)CCCCCn2c(=O)[nH]c3cc(OC)c(OC)cc3c2=O)cc1OC
Cc1ccc(C)c(Cn2c(C)c(CNCc3ccc(F)cc3)c(C(=O)O)c2C)c1
CC1=C(c2ccc(Cl)cc2)S(=O)(=O)N=C1N1CCN(c2cccc(C(F)(F)F)c2)CC1
COC(=O)c1cnc(N2CCN(c3ccccc3OC)CC2)c2ccccc12
CCOC(=O)c1ccc(NC(=O)CCn2cnnn2)cc1
Cc1cccn2c(=O)cc(COc3ccc(NC(=O)c4cccc(F)c4)cc3)nc12
Cc1ccc(-c2nn3c(-c4ccccc4)nnc3c3ccccc23)cc1
CC1=C(C(=O)Nc2ccc(C)cc2)C(c2ccc(Cl)cc2)n2nnnc2N1 (stereo not drawn)
Cc1cc(C)cc(NC(=O)C(=O)NC(C)c2ccccc2)c1 (stereo not drawn)
CCOC(=O)c1c(NC(=O)c2ccc(S(=O)(=O)N3CCCC(C)C3)cc2)sc2c1CCN(C(C)C)C2 (stereo not drawn)
COc1ccc(N2CC(NC(=O)COc3ccccc3C)CC2=O)cc1OC (stereo not drawn)
Cc1ccc(-n2c(SCC(=O)Nc3cccc(F)c3)nc3c(oc4ccccc43)c2=O)cc1C
N#Cc1ccccc1Cn1c(=O)n(Cc2ccc(C(=O)NC3CCN(Cc4ccccc4)CC3)cc2)c(=O)c2ccccc21
O=C(CSc1ncc(CO)n1Cc1ccccc1)Nc1ccc(C(F)(F)F)cc1
